{
  "source": "PubChem BioAssay AID1346428",
  "about": "(National Center for Advancing Translational Sciences (NCATS), 2018)",
  "note": "About 1,200 (2.5%) of roughly 48,000 compounds were called active. About 2% were inconclusive and are not listed.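 The calls were made as follows: active = activation of at least 60% and not above a set upper limit (about 1 call in 100 departs from these limits); inconclusive = activation of 40% to 60%, or above that upper limit; inactive = activation under 40%.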 The list shows a part of the results.",
  "data": [
    {"target": "Probable G-protein coupled receptor 32 (Homo sapiens) (UniProt O75388)", "sequence (O75388 whole entry, looked up)": "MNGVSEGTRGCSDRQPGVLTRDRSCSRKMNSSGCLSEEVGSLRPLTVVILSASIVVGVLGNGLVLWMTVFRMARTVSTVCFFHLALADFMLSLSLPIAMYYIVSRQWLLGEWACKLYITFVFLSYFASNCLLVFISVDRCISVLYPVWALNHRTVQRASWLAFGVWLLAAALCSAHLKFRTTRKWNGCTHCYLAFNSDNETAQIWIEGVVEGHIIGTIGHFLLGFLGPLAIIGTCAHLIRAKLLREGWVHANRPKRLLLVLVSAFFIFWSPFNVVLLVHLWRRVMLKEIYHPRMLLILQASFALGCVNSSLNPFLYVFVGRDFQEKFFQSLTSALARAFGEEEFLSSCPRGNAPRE", "assay": "qHTS for Agonists of Human Resolvin D1 Receptor DRV1; also: 0% is about no effect", "settings": "CHO-K1 GPR32 beta-arrestin PathHunter luminescence, 90 min; at 76.9 µM; hits give high values; zero percent set by DMSO-only wells", "summary_of_the_method": "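Step 1: seed CHO-K1 GPR32 beta-arrestin cells, 2,500/well, overnight at 37 °C. Step 2: add compounds, 90 min at 37 °C. Step 3: detection reagent, 1 h ambient, then luminescence.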", "values": [
      {"smiles": "COc1ccc(-n2cc(C(=O)NCc3ccc(Cl)cc3)c3ccccc3c2=O)cc1", "activation": "inactive: -17.4%"},
      {"smiles": "COc1ccc2nc(N(Cc3cccnc3)C(=O)c3ccco3)sc2c1", "activation": "inactive: -18%"},
      {"smiles": "CC(C)(C)NCC(O)COc1ccc(NC(=O)NC2CCCCC2)cc1", "note": "(stereo not given)", "activation": "inactive: -8.93%"},
      {"smiles": "Cc1ccc(CCNC(=O)c2cc3sccc3n2Cc2ccc(Cl)cc2)cc1", "activation": "inactive: -4.63%"},
      {"smiles": "CCOC(=O)c1cc(-c2ccc(C)cc2)n(CC(=O)Nc2ccc(OC)c(Cl)c2)c1C", "activation": "inactive: 33.6%"},
      {"smiles": "COc1cccc(CN2C(=O)C3(SCC(=O)N3c3cc(C)cc(C)c3)c3ccccc32)c1", "note": "(stereo not given)", "activation": "inactive: -13.4%"},
      {"smiles": "O=C(c1ccc2c(c1)OCCO2)N(Cc1cccnc1)c1nc2ccc(Cl)cc2s1", "activation": "inactive: 3.15%"},
      {"smiles": "COc1ccccc1N1CCN(S(=O)(=O)c2cc(-c3cc(C)no3)ccc2C)CC1", "activation": "inactive: -4.73%"},
      {"smiles": "Cc1ccc(-c2nnn(CC(=O)N(CC(=O)NCCC(C)C)c3ccc(F)cc3)n2)cc1", "activation": "inactive: -5.33%"},
      {"smiles": "CCC(C)NC(=O)c1ccccc1NC(=O)C1CCN(S(=O)(=O)Cc2ccccc2)CC1", "note": "(stereo not given)", "activation": "inactive: 1.66%"},
      {"smiles": "COc1ccc(S(=O)(=O)Nc2cc(-c3cn4cccc(C)c4n3)ccc2C)cc1C", "activation": "inactive: 0.0923%"},
      {"smiles": "CCCCCOC(=O)c1ccc(Nc2nc(C(=O)OCC)nc3ccccc23)cc1", "activation": "inactive: -6.24%"},
      {"smiles": "Cc1ccc(C(C)C)c(OCC(=O)Nc2nc3c(s2)CCCC3)c1", "activation": "inactive: -23.6%"},
      {"smiles": "CCN(CC)C(=O)c1cccc(C)c1", "activation": "inactive: 12%"},
      {"smiles": "Cc1coc2c1c(C)cc1oc(=O)c(CC(=O)NCc3ccc(Cl)cc3)c(C)c12", "activation": "inactive: -8.57%"},
      {"smiles": "O=C(NCCc1ccc(F)cc1)C(=O)NCC(c1ccc2c(c1)OCO2)N1CCOCC1", "note": "(stereo not given)", "activation": "inactive: -17.5%"},
      {"smiles": "Cc1ccc2nc(-c3c[nH]c4ccccc34)c(Nc3ccccc3)n2c1", "activation": "inactive: -5.12%"},
      {"smiles": "CCOC(=O)c1nc(Nc2ccccc2C)c2ccccc2n1", "activation": "inactive: -4.82%"},
      {"smiles": "O=C(NCc1noc2ccccc12)Nc1ccc(F)cc1F", "activation": "inactive: 6.39%"},
      {"smiles": "Cc1cccc(NC(=O)C2CCCN(c3nnc(-n4c(C)ccc4C)s3)C2)c1C", "note": "(stereo not given)", "activation": "inactive: -19.4%"},
      {"smiles": "CCOc1cccc(C2c3[nH]c4ccccc4c3CCN2C(=O)CCc2ccccc2)c1", "note": "(stereo not given)", "activation": "inactive: -37.5%"},
      {"smiles": "CCN(CC)c1ccc(C(=O)N2CCC(c3ccncc3)CC2)cc1", "activation": "inactive: 2.34%"},
      {"smiles": "O=C(Nc1nc2ccc(Cl)cc2s1)c1ccc(S(=O)(=O)N2CCCC2)cc1", "activation": "inactive: -0.844%"},
      {"smiles": "CCN(CC)S(=O)(=O)c1ccc2nc(NC(=O)c3ccc(Br)o3)sc2c1", "activation": "inactive: 21.4%"},
      {"smiles": "CC1CC2C3CCC4=CC(=O)C=C[C@]4(C)[C@@]3(F)[C@@H](O)C[C@]2(C)[C@@]1(O)C(=O)CO", "note": "(stereo not given in full)", "activation": "inactive: 10.6%"},
      {"smiles": "CCCN(C(=O)Cn1c(=O)oc2cc(Cl)ccc21)c1ccc(C(C)C)cc1", "activation": "inactive: -24.3%"},
      {"smiles": "CCOC(=O)C1CCCN(C(=O)c2ccc3c(c2)N(Cc2cccc(Cl)c2)C(=O)c2ccccc2S3(=O)=O)C1", "note": "(stereo not given)", "activation": "inactive: -35.1%"},
      {"smiles": "COc1ccc(C)cc1NC(=O)CN1C(=O)COc2ccc(S(=O)(=O)N3CCCCCC3)cc21", "activation": "inactive: -27.8%"},
      {"smiles": "CCCN(CCC)S(=O)(=O)c1ccc(C(=O)O)cc1", "activation": "inactive: 2.77%"},
      {"smiles": "CCc1ccc(S(=O)(=O)c2cn(C)c3cc(OC)c(OC)cc3c2=O)cc1", "activation": "inactive: 19.3%"},
      {"smiles": "CC(C)c1ccc(NC(=O)CN2C(=O)c3cccc4cccc2c34)cc1", "activation": "inactive: 10.1%"},
      {"smiles": "CCC1CCc2c(sc(NC(=O)C3c4ccccc4Oc4ccccc43)c2C#N)C1", "note": "(stereo not given)", "activation": "inactive: 3.14%"},
      {"smiles": "Cc1cc(Nc2cc(Cl)ccc2C)n2nc(Cc3ccccc3)nc2n1", "activation": "inactive: -12%"},
      {"smiles": "Cc1ccc(C)c(CN2C(=O)c3ccccc3S(=O)(=O)c3ccc(C(=O)N4CCN(C)CC4)cc32)c1", "activation": "inactive: -13.6%"},
      {"smiles": "O=C(CN1C(=O)COc2ccc(S(=O)(=O)N3CCCCC3)cc21)NCc1ccccc1Cl", "activation": "inactive: -20.8%"},
      {"smiles": "CCOC(=O)c1ccc(Nc2nc(C(=O)OCC)nc3ccccc23)cc1", "activation": "inactive: -8.63%"},
      {"smiles": "CCOc1ccccc1CNC(=O)CSc1n[nH]c(-c2ccccc2Cl)n1", "activation": "inactive: -13.3%"},
      {"smiles": "COc1ccc(CNC(=O)Cc2coc3ccc(C(C)C)cc23)cc1", "activation": "inactive: -15.8%"},
      {"smiles": "Cc1cc(C)c(S(=O)(=O)NCC(c2ccc(N(C)C)cc2)N2CCc3ccccc32)c(C)c1", "note": "(stereo not given)", "activation": "inactive: -39.8%"},
      {"smiles": "Cc1cc(OCCn2cc(C(=O)c3ccco3)c3ccccc32)ccc1Cl", "activation": "inactive: -13.8%"},
      {"smiles": "COc1ccccc1NC(=O)CSc1oc(-c2ccco2)nc1S(=O)(=O)c1ccc(Br)cc1", "activation": "inactive: -10.5%"},
      {"smiles": "COc1cccc(CNC(=O)CCc2nc(-c3ccc(C)cc3)no2)c1", "activation": "active: 92.5%"},
      {"smiles": "COc1ccc(-c2nnc(SCC(=O)Oc3cccc(C)c3C)o2)cc1", "activation": "inactive: -3.06%"},
      {"smiles": "CCOc1ccc(NC(=O)c2cc(CN3CCCC3)on2)cc1", "activation": "inactive: 3.02%"},
      {"smiles": "O=C(Cn1c(=O)oc2cc(S(=O)(=O)NCc3ccccc3)ccc21)NCc1ccc(F)cc1", "activation": "active: 111%"},
      {"smiles": "COc1ccc(/C=C/C(=O)Nc2ccc(Cl)c(Cl)c2)cc1OC", "activation": "inactive: 2.06%"},
      {"smiles": "Cc1c(C(=O)NCc2ccc(F)cc2)sc2nc3n(c(=O)c12)CCC3", "activation": "inactive: -5.06%"},
      {"smiles": "CC(=O)Nc1ccc(NC(=O)Nc2sc3nc4n(c(=O)c3c2C)CCC(C)CC4)cc1", "note": "(stereo not given)", "activation": "inactive: -3.58%"},
      {"smiles": "COc1ccc(-c2ccc(=O)n(CC(=O)Nc3ccc(N(C)C)cc3)n2)cc1", "activation": "inactive: -26.2%"},
      {"smiles": "O=C(Cn1nc(C(F)(F)F)c2c1CCCC2)Nc1ccc(F)c(Cl)c1", "activation": "inactive: 43.1%"},
      {"smiles": "CCOc1ccc2oc(=O)cc(CN3CCN(C(=O)c4ccc(Cl)cc4)CC3)c2c1", "activation": "inactive: -19.6%"},
      {"smiles": "CCCCc1nn2c(=O)cc(COC(=O)CNC(=O)c3ccccc3C)nc2s1", "activation": "inactive: -1.5%"},
      {"smiles": "Cc1c(NC(=O)c2cc3ccccc3o2)cccc1-c1nc2ccccc2o1", "activation": "inactive: 2.84%"},
      {"smiles": "Cc1cccc(N(C)C(=O)C2CCN(S(=O)(=O)c3cccc4nonc34)CC2)c1", "activation": "inactive: -13.2%"},
      {"smiles": "COc1ccc(OC)c(NC(=O)c2ccc(-c3nc(COc4ccccc4)c(C)o3)cc2)c1", "activation": "inactive: -5.91%"},
      {"smiles": "Cc1ccc2nc(Nc3ccc(Br)cc3)nc(-c3ccccc3)c2c1", "activation": "inactive: -30.1%"},
      {"smiles": "CSc1ccc(C2c3c(oc4ccc(F)cc4c3=O)C(=O)N2c2ccc(C)cn2)cc1", "note": "(stereo not given)", "activation": "inactive: -5.09%"},
      {"smiles": "COc1ccc(OC)c(NC(=O)Cn2cc(C(=O)c3cccs3)c3ccccc32)c1", "activation": "inactive: -3.6%"},
      {"smiles": "Cc1ccc(C(C)C)c(OCCSc2nc(-c3cccs3)nc3cc(=O)[nH]n23)c1", "activation": "inactive: -2.45%"},
      {"smiles": "CCc1cccc(CC)c1NC(=O)Cc1csc(C)n1", "activation": "inactive: -11.6%"},
      {"smiles": "CCN(CC)CCOc1ccc(C(O)(Cc2ccc(Cl)cc2)c2ccc(C)cc2)cc1", "note": "(stereo not given)", "activation": "active: 63.1%"},
      {"smiles": "CCC(=O)N1CCc2cc(CNS(=O)(=O)c3ccc(Cl)s3)ccc21", "activation": "inactive: -1.3%"},
      {"smiles": "Cc1cccc(CN2C(=O)c3ccccc3Sc3ccc(C(=O)NCCc4ccccc4)cc32)c1", "activation": "inactive: -12.2%"},
      {"smiles": "Cc1cc(Nc2cccc(F)c2)n2nc(-c3ccco3)nc2n1", "activation": "inactive: 8.62%"},
      {"smiles": "CCC(C)NC(=O)c1sc2nc(C)c(C(=O)Nc3ccc(C)cc3C)c(-c3ccc(Br)cc3)c2c1N", "note": "(stereo not given)", "activation": "inactive: 9.87%"},
      {"smiles": "COc1cc(C2NC(=O)N(C)C3=C2C(=O)N(c2ccccc2)C3)ccc1O", "note": "(stereo not given)", "activation": "inactive: -2.66%"},
      {"smiles": "Cc1ccc2[nH]c(=O)c3cc(C(=O)N4CCN(c5ccccc5F)CC4)sc3c2c1", "activation": "inactive: -8.61%"},
      {"smiles": "CC1=C(C(=O)Nc2ccc(C)c(C)c2)C2(CCCCCC2)OC1=O", "activation": "inactive: -14.3%"},
      {"smiles": "O=C(CSc1nc(-c2ccccc2)cc(=O)[nH]1)Nc1ccccc1F", "activation": "inactive: 22.3%"},
      {"smiles": "COc1ccc(-c2cnc(NCc3ccc(C)cc3)n2C)cc1", "activation": "inactive: -23.1%"},
      {"smiles": "Cc1cccc(CSc2ncc(Cl)c(C(=O)Nc3sc4c(c3C#N)CCCC4)n2)c1", "activation": "inactive: -33.9%"},
      {"smiles": "COc1ccccc1CNC(=O)c1nn(-c2ccc(C)cc2)c(=O)c2c1c1ccccc1n2C", "activation": "inactive: -2.25%"},
      {"smiles": "COc1ccc(CCNC(=O)CSc2nc3ccccc3nc2Cc2ccc(C)cc2)cc1OC", "activation": "inactive: 3.3%"},
      {"smiles": "O=C(NCc1ccccc1)c1cccc(NC(=O)N2CCSc3ncccc32)c1", "activation": "inactive: 1.3%"},
      {"smiles": "CCCCCCCCCCCCCCCCCC(=O)NCC(COP(=O)([O-])OCC[N+](C)(C)C)OCC", "note": "(stereo not given)", "activation": "inactive: 1.68%"},
      {"smiles": "CCN(CC)c1nc2c(S(=O)(=O)c3ccc(C)cc3)nnn2c2ccsc12", "activation": "inactive: -14.4%"},
      {"smiles": "COc1ccccc1NC(=O)CSc1oc(-c2cccs2)nc1S(=O)(=O)c1ccc(C)cc1", "activation": "inactive: -16.7%"},
      {"smiles": "CCn1ccc2cc(S(=O)(=O)N3CCC(C(=O)NCc4ccc(OC(C)C)cc4)CC3)ccc21", "activation": "inactive: 21.8%"},
      {"smiles": "O=C(CN1C(=O)COc2ccc(S(=O)(=O)N3CCCCC3)cc21)NCCc1ccc(Cl)cc1", "activation": "inactive: -17.5%"},
      {"smiles": "CCCSc1nnc2c(n1)OC(CC)N(C(C)=O)c1ccccc1-2", "note": "(stereo not given)", "activation": "inactive: 1.89%"},
      {"smiles": "COc1ccc(-c2nc3ccc(C(=O)NCc4ccccc4)cc3nc2-c2ccc(OC)cc2)cc1", "activation": "inactive: -6.57%"},
      {"smiles": "Cc1ccccc1NC(=O)c1ccccc1NC(=O)c1ccccc1F", "activation": "inactive: -18.4%"},
      {"smiles": "CCOc1ccccc1CNC(=O)Cn1nc(C)c2nn(-c3ccc(Cl)cc3)c(C)c2c1=O", "activation": "inactive: -10.3%"},
      {"smiles": "COC(=O)COc1ccc(Oc2nc(NC(C)(C)C)nc(N3CCOCC3)n2)nn1", "activation": "inactive: -7.56%"},
      {"smiles": "CC1=C(c2ccc(C)c(C)c2)S(=O)(=O)N(Cc2ccc(C(=O)NCc3ccc(C)cc3)cc2)C1=O", "activation": "inactive: -7.83%"}
    ]}
  ]
}
